Test results from US20200207836A1 (MONASH UNIVERSITY, published 2020).

What was measured:
Test in all cases: Receptor-HIT BRET, HEK293FT cells
untagged CCR4 = target: T1, untagged CCR4 (human, UniProt P51679 1-360)
T1 construct: Not BRET-tagged
T1 sequence: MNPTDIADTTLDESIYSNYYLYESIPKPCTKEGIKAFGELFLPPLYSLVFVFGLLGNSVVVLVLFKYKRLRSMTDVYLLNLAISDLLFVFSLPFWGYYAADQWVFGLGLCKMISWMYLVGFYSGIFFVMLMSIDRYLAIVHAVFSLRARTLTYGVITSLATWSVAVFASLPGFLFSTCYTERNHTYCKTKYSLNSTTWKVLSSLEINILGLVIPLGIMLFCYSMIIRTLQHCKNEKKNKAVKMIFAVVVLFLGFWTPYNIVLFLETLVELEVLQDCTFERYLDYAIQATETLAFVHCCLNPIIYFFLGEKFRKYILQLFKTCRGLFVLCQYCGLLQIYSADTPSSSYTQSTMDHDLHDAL

CXCR3 (not BRET-tagged) = target: T2, CXCR3 (not BRET-tagged) (UniProt P49682 1-368, limits assumed)
T2 construct: whole, on cells
T2 sequence (looked up): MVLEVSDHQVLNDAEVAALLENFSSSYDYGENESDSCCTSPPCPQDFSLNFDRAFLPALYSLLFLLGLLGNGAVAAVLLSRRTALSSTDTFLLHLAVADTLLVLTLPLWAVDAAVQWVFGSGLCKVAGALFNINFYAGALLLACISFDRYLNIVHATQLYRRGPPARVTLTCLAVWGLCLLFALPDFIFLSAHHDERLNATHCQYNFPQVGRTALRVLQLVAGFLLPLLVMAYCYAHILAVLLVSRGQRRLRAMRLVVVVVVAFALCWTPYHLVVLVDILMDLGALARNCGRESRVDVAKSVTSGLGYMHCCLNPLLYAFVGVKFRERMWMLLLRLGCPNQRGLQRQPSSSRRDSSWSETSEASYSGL

CCR10 (not BRET-tagged) = target: T3, CCR10 (not BRET-tagged) (UniProt P46092 1-362, limits assumed)
T3 construct: whole, on cells
T3 sequence (looked up): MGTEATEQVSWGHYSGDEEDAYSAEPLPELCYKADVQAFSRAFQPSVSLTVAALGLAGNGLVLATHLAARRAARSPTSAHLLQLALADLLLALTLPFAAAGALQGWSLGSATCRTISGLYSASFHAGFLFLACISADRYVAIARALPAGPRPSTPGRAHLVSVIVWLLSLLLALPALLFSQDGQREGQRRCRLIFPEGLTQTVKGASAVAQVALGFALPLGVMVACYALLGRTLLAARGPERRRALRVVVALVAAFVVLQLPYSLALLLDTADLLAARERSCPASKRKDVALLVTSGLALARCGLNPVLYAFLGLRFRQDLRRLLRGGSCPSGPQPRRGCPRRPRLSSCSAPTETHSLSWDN

Measured: binding result

B1: RAGE/Rluc8 (receptor)
chain: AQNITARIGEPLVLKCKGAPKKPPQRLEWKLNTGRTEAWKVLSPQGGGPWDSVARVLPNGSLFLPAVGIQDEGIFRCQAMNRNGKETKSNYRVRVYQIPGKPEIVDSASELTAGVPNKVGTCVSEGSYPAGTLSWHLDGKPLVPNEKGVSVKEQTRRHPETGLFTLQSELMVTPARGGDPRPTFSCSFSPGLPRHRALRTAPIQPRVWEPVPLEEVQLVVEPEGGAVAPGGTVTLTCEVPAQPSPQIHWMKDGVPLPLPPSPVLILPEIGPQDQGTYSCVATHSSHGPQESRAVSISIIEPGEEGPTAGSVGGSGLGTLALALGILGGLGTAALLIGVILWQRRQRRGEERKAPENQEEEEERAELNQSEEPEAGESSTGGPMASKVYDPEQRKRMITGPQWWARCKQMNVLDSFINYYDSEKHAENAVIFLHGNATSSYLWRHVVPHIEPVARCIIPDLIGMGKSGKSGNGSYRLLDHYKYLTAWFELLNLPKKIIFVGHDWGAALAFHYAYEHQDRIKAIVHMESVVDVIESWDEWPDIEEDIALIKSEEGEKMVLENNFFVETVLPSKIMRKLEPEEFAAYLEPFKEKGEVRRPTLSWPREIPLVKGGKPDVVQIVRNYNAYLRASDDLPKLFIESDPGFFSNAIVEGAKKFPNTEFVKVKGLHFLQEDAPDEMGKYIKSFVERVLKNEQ
notes: also called Rluc8-labelled RAGE; Rluc8-tagged RAGE
no binding: all assays above
